# Results: the supplement of paper PMC10126150
# Values marked as one replicate rest on one cluster of the flow cell; about a third of the high ones do not repeat.
# System: ATP
# Assay: switch fluorescence ratio, 500 uM ATP over buffer (Cy3 cluster intensity, sum of 5 cycles each) (fold (ratio)); higher = stronger signal-on switching upon ATP binding; sequences stand for … in TCGTCGGCAGCGTCAGATGTGTATAAGAGACAGTTTTTTTTTTTTTTTTTTTTTTTTT…TC
# Settings: aptamer strand: ATP DNA aptamer (quencher-CACCTGGGGGAGTATTGCGGAGGAAGG + anchor), 100 nM annealed; ATP concentration: 500 uM; one replicate
# Outline: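 Switching-strand clusters labelled with Cy3 on a modified Illumina MiSeq flow-cell were annealed to 100 nM quencher-labelled ATP aptamer, imaged in selection buffer, and re-imaged after 15 min with 500 uM ATP at 22 °C. This was done over five cycles with NaOH stripping and re-annealing in between. The fluorescence ratio is summed target-cycle over summed buffer-cycle Cy3 intensity per cluster, averaged per switch-domain sequence, excluding clusters outside 100-1000 RFU.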
# 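Also: ATP exposure 15 min at 22 °C before imaging.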
row,Sequence,switch fluorescence ratio
1,TCTGTTGGTA,0.952
2,AACGTAGGCA,1.05
3,TTACTTTCGC,1.02
4,CAAGGTCCGG,0.995
5,CAAATATTCG,0.985
6,CTTTCGAGGC,1.3
7,GTAACCAA,1.09
8,AGGGCGATA,1.08
9,TGTTCGAAT,1
10,TCCAGGCTCG,1.02
11,TTTGCCATC,1.12
12,TAGGGATCAA,1
13,ATGTTCGCG,1.01
14,GGAAAATTAT,0.998
15,AACTCAAGGA,0.991
16,TAATCTGCAC,1.09
17,CTAGTGATGC,1.49
18,GCCGATAGTC,1.05
19,TTAGCCTACC,1.32
20,ACAGGCTGAT,1.06
21,ATGAAATTAA,1
22,GAGTTGTATA,0.998
23,TCGCGTTAGG,1.01

row,Sequence,switch fluorescence ratio
1,GCCACAACAT,0.984
2,TATAGGT,0.982
3,TTCGGAGACA,0.984
4,TGGGTGAGCC,1.02
5,ATCGTATCGT,0.921
6,AACCGAACCA,1.2
7,TACCTGTTGT,0.986
8,ACCAGGTCCA,1.08
9,TATGTGATCG,0.998
10,CTCCGTCCG,1.52
11,TGCATAGGAG,1
12,TATCTAGCTT,1.03
13,AGAGAGTACC,0.989
14,AACAAATCCT,1.2
15,GGGCGCTCTG,0.984
16,CGGAAGCAGG,1.16
17,GCAGTTGGTT,0.973
18,TGGCACCTGT,1.02
19,GTGCTGATGG,0.997
20,AATCTGAGTC,1.01
21,CGTATGAGAG,0.949
22,CTGTAAGACA,0.991
23,ATGTGATAAG,0.98

row,Sequence,switch fluorescence ratio
1,GAACGTTTTT,0.991
2,GAAGTTATGG,0.943
3,TGGACGGGT,1
4,GACCTGCTGT,1
5,AATGCAAGAT,1.09
6,CGGGTAGATG,1.06
7,GGTTACCCGG,1
8,GGTGATATTG,1.04
9,GGCCTAGCGG,1
10,CCTGTTGTCG,1.1
11,TGACGGATCG,0.939
12,GGCGCATGCA,0.982
13,CTATGCTTGT,0.977
14,AACCAGTCTC,1
15,ACATCTCCCA,1.05
16,TGCCTTTGAA,1.05
17,TTTGGTATGC,0.925
18,TTATTTTACC,1.06
19,GACGTTCGGG,1.06
20,ATTGGGTCAC,1.01
21,CGGCCAGGGA,1.07
22,AAATTATTAT,0.991
23,GGTATAGGAG,1.01

row,Sequence,switch fluorescence ratio
1,TCTTAGGATG,0.957
2,GCGTTTTGGA,0.963
3,AGGGCTTCCA,1.03
4,AAACGTGTGA,1.02
5,GAGTCGAATG,1.03
6,AACACGGGTC,1.09
7,GCAGTAAAAG,1.02
8,TTAATTTGAT,1.01
9,TATCTGTACC,0.977
10,TTTACGTTAT,1.34
11,CGTTACGGC,0.989
12,AGAATCGCGG,1.01
13,TAGTCAAATC,1.05
14,CGGCTTACGG,1
15,CTGAAGTGT,0.961
16,TTTGAGAAAA,0.966
17,GGCGCCATTC,1.02
18,GACTGATGGA,1.02
19,GTGATTTTAG,0.964
20,CCGTTTATCT,1.05
21,ACTATACCAT,1.3
22,CAGTCTATGT,0.993
23,TTGTGATTGG,0.985

row,Sequence,switch fluorescence ratio
1,GAAAGCATGT,0.99
2,ACTTACTCGT,1.17
3,CCCTATCCCT,1.09
4,AGTGAAATG,1.03
5,ACAGTGCAGG,1
6,GTTTGATGAG,0.976
7,TGTAATAATT,1
8,TCCAGAGCTG,0.952
9,GCAATGAATT,1.06
10,ATCACACATG,0.988
11,TTATCTAGG,0.995
12,AAAATAGTGG,1
13,TACCAACAAT,1.09
14,ATCATTGTAT,1.03
15,TGGCGCGTCC,1.01
16,TGGAAATTCT,0.999
17,TAAAGAGTAA,0.987
18,CTGGCTTCGC,1.07
19,TTAATTGTAC,1.08
20,CACTCAATTT,1.01
21,TACTTATCTT,1.08
22,TCATTCAACC,0.983
23,TAAATTCCAG,1.03

row,Sequence,switch fluorescence ratio
1,TTATGCCAAT,0.959
2,GCAAGGACTA,1.1
3,GTGGAATGCC,0.975
4,AGGCATTCAG,0.987
5,GGATCCCCAC,1.23
6,CTCCAATTAA,1.41
7,CGAGGGCGT,1.03
8,ACTCCACTAG,2.36
9,GGGTATGAGA,1.01
10,GGGCTATGGA,0.998
11,GTCAACGGAA,1.07
12,TGAACTCTGA,0.989
13,CTGAGAAACG,1.01
14,ACGCTGAGTT,1.02
15,GAGCCGGCTA,0.951
16,CAATTTTGAG,1.01
17,ACTGGCTTTG,0.995
18,ACGGATTTAA,1.01
19,AGGGATCAGA,1.03
20,TAAGACCTG,1.02
21,GACGAGTCTA,1.01
22,ATTGGTTCC,1.11
23,AACACGGATT,1.02

row,Sequence,switch fluorescence ratio
1,CGCTTTTTGG,0.975
2,TTCTTATCTA,0.97
3,AATGGTCGGT,1.01
4,CAACTACTGC,0.988
5,TCGAAAGTGA,1.03
6,CGGTGGGGTC,1.06
7,TTAGCTTTCG,1.02
8,ATCAAGGTCA,1.01
9,CATTGGAGAA,0.964
10,AGCGGACATC,1.02
11,AGATCTAGAC,1.06
12,GCATAAACAT,1.02
13,AATAGTTGAG,0.971
14,GTTTATAAGC,0.993
15,TGGTCGACCG,0.983
16,TTCATTAGG,0.985
17,GGCACTTATA,1.04
18,TATCATGAAC,1.06
19,ATAGATGGG,0.966
